# Measurements reported in the antibiotic and cytotoxicity screens of Wong et al. (2023).
# This is one part of the list.
# Tested on: HepG2
# Assay: cytotoxicity call (relative viability < 0.9)
# Details: 10 µM
row,Structure (SMILES),cytotoxicity call
1,CN(C)CCCNC(=O)C[C@H]1CC[C@H]2[C@@H](COC[C@H](O)CN2C(=O)Nc2cc(Cl)cc(Cl)c2)O1,inactive
2,C[C@@H]1CCCCO[C@@H](CN(C)S(=O)(=O)c2ccc(Cl)cc2)[C@@H](C)CN([C@H](C)CO)C(=O)c2cc(NC(=O)Nc3cccc4ccccc34)ccc2O1,inactive
3,C[C@@H]1CCCCO[C@H](CN(C)C(=O)Nc2ccccc2)[C@H](C)CN([C@@H](C)CO)C(=O)c2cc(NS(=O)(=O)c3ccccc3)ccc2O1,inactive
4,C[C@H](CO)N1C[C@H](C)[C@H](CN(C)Cc2ccc(C(F)(F)F)cc2)Oc2ccc(NC(=O)Nc3ccc(F)cc3)cc2CC1=O,active
5,CCn1nnnc1NCc1cccn1C,inactive
6,C[C@@H]1CCCCO[C@@H](CN(C)CC2CCCCC2)[C@H](C)CN([C@H](C)CO)C(=O)c2cc(NC(=O)c3ccncc3)ccc2O1,inactive
7,CCOC(=O)C1=C(C)NC(C)=C(C(=O)OC)C1c1cccc([N+](=O)[O-])c1 (stereo not given),inactive
8,Cc1ccc(S(=O)(=O)N[C@@H](Cc2ccccc2)C(=O)NCCn2cc(C(=O)NO)nn2)cc1,inactive
9,C[C@H](O)C#Cc1ccc2c(c1)O[C@H](CN(C)C(=O)c1ccncc1)[C@H](C)CN([C@H](C)CO)S2(=O)=O,inactive
10,C[C@@H]1CN([C@@H](C)CO)C(=O)c2cccc(NS(=O)(=O)c3cccs3)c2O[C@H]1CN(C)S(=O)(=O)c1cn(C)cn1,inactive
11,Nc1ccn([C@@H]2O[C@H](CO)[C@@H](O)[C@@H]2O)c(=O)n1,inactive
12,C[C@H](CO)N1C[C@H](C)[C@H](CN(C)C(=O)C2CCCCC2)Oc2cc(-c3cncnc3)ccc2S1(=O)=O,inactive
13,C[C@@H]1CN([C@H](C)CO)C(=O)c2cccc(NS(=O)(=O)c3ccc(Cl)cc3)c2O[C@@H]1CN(C)C(=O)Nc1ccc(C(F)(F)F)cc1,active
14,C[C@@H]1CN([C@H](C)CO)C(=O)Cc2cc(NS(=O)(=O)c3cn(C)cn3)ccc2O[C@@H]1CN(C)S(=O)(=O)c1ccc(F)cc1,inactive
15,COc1cccc(CNC(=O)C[C@H]2C=C[C@H](NC(=O)C3CCOCC3)[C@@H](CO)O2)c1,inactive
16,C[C@@H]1CN([C@@H](C)CO)C(=O)c2cc(Br)cnc2O[C@H]1CN(C)S(=O)(=O)c1ccc(F)cc1,inactive
17,C[C@@H]1CN([C@H](C)CO)C(=O)c2cc(NC(=O)CCCCCC(=O)Nc3ccccc3N)ccc2O[C@@H](C)CCCCO[C@H]1CN(C)Cc1ccc(Cl)c(Cl)c1,inactive
18,C[C@@H]1CN([C@@H](C)CO)C(=O)Cc2cc(NC(=O)CCCCCC(=O)Nc3ccccc3N)ccc2O[C@H]1CN(C)S(=O)(=O)c1cn(C)cn1,inactive
19,C[C@@H]1CN([C@@H](C)CO)C(=O)c2cccc(NC(=O)CCCCCC(=O)Nc3ccccc3N)c2O[C@H]1CN(C)Cc1ccc(Oc2ccccc2)cc1,inactive
20,COc1ccc(S(=O)(=O)N(C)C[C@@H]2Oc3ccc(NS(=O)(=O)c4cccs4)cc3CC(=O)N([C@H](C)CO)C[C@@H]2C)cc1,inactive
21,CC(C)NC(=O)N(C)C[C@H]1OCCCC[C@H](C)Oc2ccc(NC(=O)C3CCCCC3)cc2C(=O)N([C@@H](C)CO)C[C@H]1C,inactive
22,O=C(C[C@H]1C=C[C@H](NC(=O)Cc2ccccn2)[C@H](CO)O1)NCCc1ccncc1,inactive
23,N#C[C@H](N)c1ccc(Cl)cc1,inactive
24,C[C@H]1CN([C@@H](C)CO)C(=O)Cc2cc(NC(=O)CCCCCC(=O)Nc3ccccc3N)ccc2O[C@H]1CN(C)Cc1ccc(C(F)(F)F)cc1,inactive
25,CN(C)CCCCCCNC(=O)[C@@H]1C[C@@H]2C(=O)N[C@@H](CCCC[N+](C)(C)C)C(=O)N2[C@@H]1c1ccc(O)cc1,inactive
26,C[C@@H]1CN([C@@H](C)CO)S(=O)(=O)c2ccc(C#CC3CCCC3)cc2O[C@@H]1CN(C)C(=O)Cc1ccncc1,inactive
27,COc1ccc(cc1)S(=O)(=O)N1C[C@]2(C1)CN([C@H](CO)c1c2c2ccc(cc2n1C)OC)C(=O)CN(C)C,active
28,N[C@@H](C[C@@H](F)C(=O)O)C(=O)O,inactive
29,O=C(C[C@@H]1CC[C@H]2NC[C@H](O)COC[C@@H]2O1)NCCN1CCCCC1,inactive
30,C[C@@H]1CCCCO[C@@H](CN(C)S(=O)(=O)c2ccc(F)cc2)[C@@H](C)CN([C@@H](C)CO)C(=O)c2cc(NC(=O)Cc3ccccc3)ccc2O1,active
